Test results from PubChem BioAssay AID1240 (Sanford-Burnham Center for Chemical Genomics, 2008).
Among all 50,000 compounds or so, about 800 (1.6%) showed an effect of 50% or more. The list shows a part of the results.

target: Bcl-2-like protein 10 (Homo sapiens) (UniProt Q9HD36); assay: TR3 peptide-Bcl-B binding displacers, biochemical primary FP assay, phenotype converters (AID 1240); details: GST-Bcl-B / FITC-TR3 peptide fluorescence polarization; stronger effect = higher value; compound at 3.75 mg/L;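 further: 0% = Bcl-B with tracer peptide and DMSO and 100% = tracer peptide lacking Bcl-B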
UniProt Q9HD36, sequence (Q9HD36 whole entry, looked up): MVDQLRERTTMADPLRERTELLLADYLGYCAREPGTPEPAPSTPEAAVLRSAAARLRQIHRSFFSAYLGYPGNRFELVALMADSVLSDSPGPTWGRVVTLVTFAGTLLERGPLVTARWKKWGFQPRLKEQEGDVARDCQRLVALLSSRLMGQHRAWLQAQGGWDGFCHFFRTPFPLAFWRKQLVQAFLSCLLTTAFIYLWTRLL

SMILES	displacement
COc1cccc(/C=N/NC(=O)C(=O)N2CCCC2)c1	9.6%
CCc1cccc(NC(=O)CCc2ccccc2)c1	-7%
COc1ccc(/C=C/C(=O)NC(=S)Nc2ccccc2C)cc1OC	8.5%
CCCC(=O)Nc1ccc(NC(=O)c2ccc(Br)o2)cc1	6.6%
O=C1c2ccccc2C(=O)N1C1C(=O)N(c2ccc(Br)cc2)C1c1ccccc1 (stereo not drawn)	-2.1%
Cc1cc(C)c2c(N)c(C(=O)c3ccc(Br)cc3)sc2n1	-7.3%
O=S(=O)(O)c1c(O)cnc2ccccc12	8.7%
O=C(Nc1ccc(Cl)cc1Cl)c1nn2c(c1Cl)NC(c1ccc(Cl)cc1)CC2C(F)(F)F (stereo not drawn)	3%
O=C(CN(Cc1ccccc1)Cc1ccccc1)NCCNc1ccc([N+](=O)[O-])cc1Cl	-3.7%
CCCCOc1ccc(N/C(N)=N/c2nc(C(F)(F)F)cc(=O)[nH]2)cc1	-11.9%
CN1CCN(C2=NC(=O)/C(=C\c3cccc4c3OCO4)S2)CC1	-2.6%
CN(C)/C=C1\N=C(C(c2ccccc2)c2ccccc2)OC1=O	-11.7%
COc1ccccc1-c1c(C(F)(F)F)oc2c(CN3CCCC3)c(O)ccc2c1=O	11.4%
C#CCOc1ccc2c3c(c(=O)oc2c1)CCC3	-4%
C=CCSc1nnc2c3ccccc3n(CC=C)c2n1	8.5%
COc1ccc(CNC(=O)CSc2cccc3cccnc23)cc1	11.7%
Cc1cc(C)cc(NC(=O)C(=O)NCc2ccccc2)c1	9.9%
CCOc1ccccc1C=Nc1ccc(C(N)=O)cc1	-9.7%
O=c1[nH]nc(SCc2ccc(Cl)cc2)c(=O)[nH]1	-4.3%
O=S(=O)(/N=C(/c1ccc(F)cc1)N1CCOCC1)c1ccccc1	18.1%
COc1cc(-c2cc(C(F)(F)F)n3ncc(C(=O)Nc4cccc5ccccc45)c3n2)cc(OC)c1OC	5.9%
Cc1nc(C)c(/C(O)=C/c2nc3ccccc3[nH]c2=O)o1	-8.5%
COC(=O)c1ccc(/C=C2/C(=O)NC(=O)N(c3ccc(C(C)C)cc3)C2=O)cc1	2.5%

SMILES	displacement
CCOc1ccccc1NC(=O)c1ccccc1	4.7%
CN(C)CCNc1ncnc2c1cnn2-c1ccccc1	-6.9%
O=c1c(Oc2ccccc2Br)coc2cc(O)ccc12	18.8%
CN1CCN(c2ccc(/C=C3\NC(=S)NC3=O)cc2[N+](=O)[O-])CC1	17.7%
Cc1ccc(C(NC(=O)c2ccccc2)c2c(O)ccc3ccccc23)cc1 (stereo not drawn)	2.5%
CN(C)/C=N/c1sc2c(c1C#N)CCCC2	12.2%
O=C(/C=C/c1ccccc1)Nc1nc2ccc(Br)cc2s1	15%
Cc1ccc(NC(=O)c2cc(I)ccc2Cl)cc1	11.4%
N#C/C(=N/Nc1ccccc1[N+](=O)[O-])C(=N)N1CCOCC1	11.8%
O=C(COc1ccc(Cl)cc1Br)Nc1ccc2c(c1)OCCO2	1.8%
CS(=O)(=O)N(Cc1ccccc1)c1ccc(C(=O)N2CCN(c3ccccc3)CC2)cc1	-5.7%
Cc1cccc(C2Nc3cccc4cccc(c34)N2)c1	20.1%
CCOc1ccc(/C=C2\C(=O)NC(=O)N(c3ccc(Cl)cc3)C2=O)cc1Br	-7.7%
COc1ccc(CCN2C(=O)CC(Cc3cccc(C)c3)C2=O)cc1OC (stereo not drawn)	15.9%
COc1ccccc1-n1c(C)ccc1-c1ccccc1	-25.1%
Brc1ccccc1OCCCCN1CCCC1	10%
CC1=CC(C)(C)Nc2ccc(OC(=O)COc3ccc4ccccc4c3)cc21	7.5%
CCOCCOC(=O)C1=C(C)NC2=C(C(=O)CCC2)C1c1cccc(F)c1 (stereo not drawn)	15.8%
CCc1c(C)sc(NC(=O)C2CCCO2)c1C(N)=O (stereo not drawn)	20%
CCOC(=O)C(CC)Sc1n[nH]c(=O)[nH]c1=O (stereo not drawn)	5.9%
Cc1ccc(S(=O)(=O)N2CCC(C(=O)O)CC2)c2nsnc12	-2.2%
Cc1c(NC(=O)c2cccnc2)cccc1NC(=O)c1cccnc1	9.8%
Cc1ccc2c(c1)N(C(=O)COc1nc3ccccc3s1)C(C)(C)c1ssc(=S)c1-2	-4.1%

SMILES	displacement
O=C1C2CCCCC2C(=O)N1CC(=O)N1c2ccccc2Sc2ccc(C(F)(F)F)cc21 (stereo not drawn)	-14.3%
O=C(Nc1ccc2oc(-c3cccnc3)nc2c1)c1cccc(OCc2ccccc2)c1	11%
O=C(Nc1ccc(Cl)cn1)c1ccc(-c2ccc([N+](=O)[O-])cc2)o1	13.9%
COc1ccc(NC(=O)c2cccc([N+](=O)[O-])c2C)cc1Cl	-2.7%
O=C(NCc1ccc2c(c1)OCO2)C1CCCC1	-9.7%
CCC(C(=O)Nc1sc2c(c1C(=O)OC)CCC(C)C2)c1ccccc1 (stereo not drawn)	7.2%
CCOC(=O)Nc1nc(C)c(C(C)=O)s1	-1.5%
COC(=O)c1c(C)oc2ccc(OS(C)(=O)=O)cc12	11.7%
CCOCCOC(=O)c1ccc(NC(=O)c2cccc(C)c2)cc1	-12.6%
N/C(=N\S(=O)(=O)c1ccc(Cl)cc1)c1ccc(F)cc1	8.3%
CCN(CC)c1ccc(/C=C2N=C(/C=C/c3ccccc3)OC/2=O)cc1	-28%
COc1ccc(/C=N/Nc2cc(N3CCOCC3)ncn2)cc1	-0.6%
FC(F)(F)c1cccc(NC(=S)NCc2ccc(Cl)cc2)c1	-5.2%
O=C(COc1ccccc1[N+](=O)[O-])Nc1ccc2oc(-c3cccc4ccccc34)nc2c1	56.9%
CCOc1ccc(C(=O)Nc2ccc(C)cc2[N+](=O)[O-])cc1Br	35.7%
O=C(N/C(=C/c1cccnc1)C(=O)N1CCCCCC1)c1cccc(Br)c1	-8.9%
O/N=C/c1ccc(OCC(O)Cn2c3ccccc3c3ccccc32)cc1 (stereo not drawn)	17.4%
CCc1cccc(C)c1NS(=O)(=O)c1ccccc1	15.5%
Cc1cc([N+](=O)[O-])ccc1NCc1cc(F)ccc1F	7.1%
Cc1ccc(Oc2nc(-c3ccncc3)nc3ccccc23)cc1	-5%
Cc1c(NC(=O)c2cccc3c2C(=O)c2ccccc2-3)c(=O)n(-c2ccccc2)n1C	2.1%
COc1cc(C2NC(=O)N(C)C(C)=C2C(=O)OC2CCCC2)cc(Br)c1O (stereo not drawn)	7.7%
COc1ccc(N2C(=O)CC(NCCCc3ccccc3)C2=O)cc1 (stereo not drawn)	-4.8%

SMILES	displacement
S=C(NCCN1CCOCC1)Nc1cccc(Cl)c1	-6.7%
Cc1ccc(N(CC(=O)NCC(C)C)S(=O)(=O)c2ccc(F)cc2)cc1	-9.3%
CCOC(=O)c1ccc(-c2ccc(/C=C3/C(=O)NN(c4cccc(Cl)c4)C3=O)o2)cc1	-1.9%
Cc1cccc(CC2S/C(=N\N=C\c3ccc(O)cc3)NC2=O)c1 (stereo not drawn)	-15.4%
CC(=O)Oc1ccccc1N1C(=O)c2cccc([N+](=O)[O-])c2C1=O	2.1%
O=C(Nc1cccc(Cl)c1Cl)c1cc2nc(-c3ccc([N+](=O)[O-])cc3)cc(C(F)(F)F)n2n1	14.6%
Cc1ccc(CN2CCN(N=Cc3cccc(Cl)c3)CC2)c(C)c1	10.3%
CN1CCN(Cn2c(O)c(N=NC(=O)CO/N=C/c3ccccc3Cl)c3ccccc32)CC1	-9.3%
O=[N+]([O-])c1cccc(Cl)c1N1CCN(CCO)CC1	89.3%
CCOc1cc(/C=C2/N=C(c3ccc(NC(C)=O)cc3)OC2=O)ccc1OCc1ccccc1	-1.3%
Cc1ccc(Cl)cc1N(Cc1ccc(C(=O)NN=C2CCN(C)CC2)cc1)S(=O)(=O)c1ccccc1	-24.8%
COc1cc(NC(=O)c2cc(I)ccc2Cl)ccc1NC(=O)c1ccco1	-5.6%
S=C(c1ccc(-c2ccc(Br)cc2)o1)N1CCCCC1	-3.2%
CCC(=O)c1ccc(N2CCN(C(=O)c3ccccc3F)CC2)c(F)c1	-15.1%
CC(NC(=O)c1ccc(I)cc1)c1ccccc1 (stereo not drawn)	-11%
CCCCn1c(NC(=O)c2ccc(Cl)cc2)nc2ccccc21	13.6%
C=CCOc1c(Br)cc(/C=C/C(=O)O)cc1OC	-8%
O=C(Nc1ccc(Br)cn1)c1cccc(F)c1	-1.8%
Cn1c(/N=C/c2ccc3c(c2)OCO3)nc2ccccc21	2.7%
O=C(NC1CCS(=O)(=O)C1)/C(=C\c1ccccc1)NC(=O)c1ccc([N+](=O)[O-])cc1 (stereo not drawn)	-2.7%
COc1ccc(CN2CCN(C(=O)c3ccco3)CC2)cc1Br	-11.3%
CN(Cc1ccccc1)Cn1[nH]c(=O)ccc1=O	14.7%
COc1ccc(/C=C/C(=O)Nc2scc(-c3ccc(Br)cc3)c2C(=O)O)cc1	-6%

SMILES	displacement
Cn1cccc1CN1CCN(C(=O)c2cccc(Cl)c2)CC1	-2.2%
Cc1ccc(NC(=O)CN(c2ccccc2)S(=O)(=O)c2ccccc2[N+](=O)[O-])cc1C	9.8%
COC(=O)c1ccc(CSc2nc3ccccc3s2)cc1	9.5%
Cc1ccc(-c2noc(-c3ccc(Cl)cc3Cl)n2)cc1	21.7%
CCOC(=O)C(C#N)=C1CCCCCC1	23.8%
C(=NC1=NN(c2ccccc2)CC1)N1CCOCC1	7%
NC1=NC(=O)C(Cc2cccc(C(F)(F)F)c2)S1 (stereo not drawn)	-1.4%
CSc1nc2ccc(NC(=O)c3ccc(Br)cc3F)cc2s1	-14.2%
C=CCN(CC=C)CC(O)CN1C(=O)NC(C)(C)C1=O (stereo not drawn)	4.3%
COc1ccc(OCC(=O)Nc2ccc(-c3nc4ccc(C)cc4s3)cc2)cc1	-9.7%
CCC(=O)c1ccc(OC(=O)c2cccc(C)c2)cc1	1.3%
Cc1ccc(C)n1Cc1ccc(C(=O)O)cc1	66.4%
O=C(Nc1cccnc1)c1cccc(C(=O)Nc2cccnc2)n1	-7.2%
O=C(O)COc1ccc(Br)cc1/C=N/NC(=O)/C(=C/c1ccccc1)NC(=O)c1ccccc1	-0.9%
Cc1ccc(N2CCN(/N=C\c3ccccc3OCC(=O)O)CC2)cc1	-5.3%
Cc1cc(Cl)ccc1OC(C)C(=O)Nc1cccc(Cl)c1 (stereo not drawn)	2.6%
Cc1cc(Cl)ccc1OCCCC(=O)Nc1cccc(Br)c1	-1.9%
O=C(NN=C1CCCCC1)c1cccnc1	3.4%
Cc1ccc(C(=O)N/C(=C/c2cccnc2)C(=O)N2CCCC2)cc1	-8.9%
CC(C)c1ccc(NC(=O)C(=O)NCC2CCNCC2)cc1	3.4%
O=C(Nc1ccc(Cl)cc1Cl)c1nc2nc(-c3ccccc3)cc(C(F)(F)F)n2n1	-6.7%
